This is one part of the list.
B1: chr8:29963340:29963341:+_ENSG00000104660_ENST00000321250|hu_hu|FALSE|FALSE (ssRNA)
RNA: GGGAGUUCUACAGUCCGACGAUCUUUUCACCACUGCUGCCAGCUGAAGUCGUCAUUGCUUCCAAAGACCAAGAAAAAGCCUAGUAUAGUUGCAAAGAUGACUGUGUUUCCUGUGAGAACAAGUGCACAAGCUCCCCACUCAAUCAACAGAGGAUUGAGCAUCA
B2: chr5:31546141:31546142:+_ENSMUSG00000029148_ENSMUST00000031034|mus_mus|FALSE|FALSE (ssRNA)
RNA: GGGAGUUCUACAGUCCGACGAUCUCUGAGCCACUGCUGACUACUGUUUGGGACUCCCCUUCCGACAUGCUGGAAUGAACACUCAGCCUCCCGACUCCGCGCCCGCAGCCUGCGCUUCAGCUCCAGCUCGGGUUCCGGGGCCUCCAACAGAGGAUUGAGCAUCA
B3: chr1:111986530:111986531:-_ENSG00000116455_ENST00000235090|hu_hu|FALSE|FALSE (ssRNA)
RNA: GGGAGUUCUACAGUCCGACGAUCACUGCAGCCAAUCUGUGAUGCUGGCUUGGGACAGCGGGUAUCCCAGAGUAAAAUUCUAUUGUCCUCGCUGCAUGAAAGAAACACAGAGUCCUUGUGAGGAGAGGCAGCAACACAAGUGACCAACAGAGGAUUGAGCAUCA
B4: chr1:58468927:58468928:-_ENSMUSG00000026034_ENSMUST00000148330|mus_mus|mus_mus_mus_hu_False|8_58 (ssRNA)
RNA: GGGAGUUCUACAGUCCGACGAUCAAUUACUGAAAAAGAUGUUCAUUACCUUAGCUAUGUACUUAAUGAACCAAAUUAUCUAAAAAAAAUAAACAUGGCAAUAUAAAAAUGUUAAGAAUUUACAAAGAUUAAAAGCUUAACUUACAACAGAGGAUUGAGCAUCA
B5: chr2:65860617:65860618:+_ENSMUSG00000044647_ENSMUST00000122912|mus_mus|motif|central (ssRNA)
RNA: GGGAGUUCUACAGUCCGACGAUCGAGCUGGCUAGGAGUUCCUGGGAUGUGACUAUCUAUUUGGUAGUAGAGAGUUGAAGAGCGGGCGUAAAAUGAAGCAUUUUUUGUGUGGCUUUCAUGAACUGCGGUGCCAUCAGAGUAACACAACAGAGGAUUGAGCAUCA
B6: chr6:38652254:38652255:-_ENSG00000124767_ENST00000373365|hu_hu|hu_hu_hu_mus_False|48_108 (ssRNA)
RNA: GGGAGUUCUACAGUCCGACGAUCCGAAAACUUCAUAGCAGGGAAGUCAAGCUUCUGCAGGAGGGUCAGUCCAAGAACCCUCGUAUAAAAAUCCAGUGACUUCUUAGGAUCCUUAAUUCUUAGCAUCGUUUGCUGCAGUAGAAACAACAGAGGAUUGAGCAUCA
B7: chr7:86439405:86439406:+_ENSMUSG00000039202_ENSMUST00000037315|mus_hu|FALSE|FALSE (ssRNA)
RNA: GGGAGUUCUACAGUCCGACGAUCUUCCUUGAAGAGUUGUACAGUUGGGCCGGUCAGGUCAGAUCUCUUAUUCAAACAAACCUAAAAGCUGCGUGUGAUUGACUACAGGUGCUCAGCUCGCCCCCAGUCUGGUUCCUGCAGCUCCAACAGAGGAUUGAGCAUCA
B8: chr5:128440902:128440903:+_ENSG00000066583_ENST00000173527|hu_mus|hu_hu_hu_mus_True|68_98 (ssRNA)
RNA: GGGAGUUCUACAGUCCGACGAUCUUGAACGGUGCUGCCAAGACCUUUGGGGUAUUGUUCCGUUAUGAUAACAGGAAUCCCUAAGAUCCGAGCUCCUUGCAACAGUCUCUGUCCCACACUAAUGAUGUCCCCAAAGUAUUUGAUCAACAGAGGAUUGAGCAUCA
B9: chr17:34051329:34051330:+_ENSG00000006125_ENST00000262325|hu_hu|FALSE|FALSE (ssRNA)
RNA: GGGAGUUCUACAGUCCGACGAUCAAUCAAAUGAGAUUAUAAUAUGGAAAGGGGGAAGCAUGAAGGCUUGGCCAAGGAAAAGGAGUUUGGAGGGGAAAAAAAGAAAAAAGCAAACUGAAAAUCCAAAUGACCAGGGAUAAGGCUCAACAGAGGAUUGAGCAUCA
B10: chr22:19452774:19452775:-_ENSG00000070010_ENST00000399523|hu_hu|hu_hu_hu_mus_False|28_68 (ssRNA)
RNA: GGGAGUUCUACAGUCCGACGAUCCUUCUCAUUGUAGUUGAUAGCAAUCACAUCUCCAGUCGUCAGACAGGCAAAGUUUCUCAAUGCAUUUUCUAAUACCGCUUUAGGGUUGGUGAUAUCCAGGAAGUCUGGGCUCUGAGGCUGCAACAGAGGAUUGAGCAUCA
B11: chr2:91460361:91460362:+_ENSMUSG00000040549_ENSMUST00000099716|mus_mus|motif|central (ssRNA)
RNA: GGGAGUUCUACAGUCCGACGAUCUGUGUACAAUGGCCUGCAGCGGCCGCUUCACACUACAGGGCUUCUAGAUCAGUAACGGAAGCUGCAGAGUGCCGAGGGUGGGCAGCUUCAUUUGCGACUGCUCUUUAUUCUCUCCAGUCUCAACAGAGGAUUGAGCAUCA
B12: chr4:120564322:120564323:+_ENSMUSG00000032890_ENSMUST00000071093|mus_mus|motif|central (ssRNA)
RNA: GGGAGUUCUACAGUCCGACGAUCAAGUGUCCAUACGAUGCUCCUUUGGGUUCUUUCCAGCAAGAUACAGAGAUGUGGACGGUAUAGUCCAUGUGAUCACCAGGACUGAUUGUACACAGACAAAUGGACAAAUAUGUGGACACACAACAGAGGAUUGAGCAUCA
B13: chr11:134021440:134021441:+_ENSG00000166086_ENST00000529443|hu_hu|motif|central (ssRNA)
RNA: GGGAGUUCUACAGUCCGACGAUCAUUCAUAUCUUAAAAUACACGAGUAUUCCUUUUCCGUCUAGUCUCAGUUAUAGGCAGCGGCUUCCCAGACUCUACUUUCACUUCUCUCUACUUUUUCAGACCUGGUUCCCAUGGCACUAGCAACAGAGGAUUGAGCAUCA
B14: chr6:30401018:30401019:+_ENSMUSG00000029775_ENSMUST00000068259|mus_mus|FALSE|FALSE (ssRNA)
RNA: GGGAGUUCUACAGUCCGACGAUCAUGAUAUUUUAAUCUGUAGUGUUAGUUGACAUGGUCAAUAUGCUCAGAAUUAAAAAAAAAAGGCAACAAUUUCUCUCUCUUGAUUCUUAACAUUAUUAAGGGACUUUCAGACAUUCCCUCCAACAGAGGAUUGAGCAUCA

Each binder was assayed against T1, UNK ZnF1-3 (human, UniProt Q9C0B0 31-174) (assay: nsRBNS (natural sequence RNA bind-n-seq); RBNS binding buffer (assumed for nsRBNS): 25 mM Tris pH 7.5, 150 mM KCl, 3 mM MgCl2, 0.01% Triton X-100, 500 ug/ml BSA, 20 U/ml SUPERase-In, 4 C; UNK is unkempt and MSI1 is Musashi-1; names of the RNAs are library labels; protein concentration not given here; high values mean tight binding).
T1 sequence: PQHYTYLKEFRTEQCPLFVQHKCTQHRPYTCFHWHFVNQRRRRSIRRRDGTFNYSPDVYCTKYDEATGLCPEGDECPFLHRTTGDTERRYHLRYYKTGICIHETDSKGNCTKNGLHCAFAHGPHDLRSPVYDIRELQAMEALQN

Row | Binder | binding signal
1 | B1 | 1.3 enrichment R
2 | B2 | 0.504 enrichment R
3 | B3 | 1.97 enrichment R
4 | B4 | 2.18 enrichment R
5 | B5 | 1.11 enrichment R
6 | B6 | 0.957 enrichment R
7 | B7 | 1.23 enrichment R
8 | B8 | 0.665 enrichment R
9 | B9 | 2.51 enrichment R
10 | B10 | 0.979 enrichment R
11 | B11 | 0.76 enrichment R
12 | B12 | 1.31 enrichment R
13 | B13 | 0.552 enrichment R
14 | B14 | 1.07 enrichment R

Reference: publication PMC12136788
